The other results are listed elsewhere or left out.
tested on: PfAP2-HC AP2 domain (GST-tagged); assay: gcPBM binding intensity (ln(normalized median fluorescence intensity)); higher = stronger DNA binding
In short: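 GST-tagged P. falciparum DNA-binding domains produced in E. coli were incubated for 1 h on an Agilent 4 × 180k array of primer-extended double-stranded 36-bp intergenic genomic probes with negative controls. Binding intensity is the highest Masliner-normalised natural-log median intensity across replicate spots of either probe orientation, with bound protein detected by Alexa488 anti-GST antibody at 488 nm.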

Row | Sequence | gcPBM binding intensity (ln)
1 | TTTTTTTTTTTTTTTACACACATTTTAATAATTTTA [CACACA_site1492] | 9.57
2 | TTGTAAAAAATTCATACACACGTCTTATTTTTAAGA [CACACA_site8390] | 9.59
3 | ATTTTTTCTAAAAGTTGTACATTAAAACGTGTTCAC [XGTACX_site4803] | 9.44
4 | TATTTATTCTCCAACACACACACATATATATATATA [CACACA_site2894] | 10.3
5 | AAAATGAATTTAAAATGTACTTTTTCTAAAGAGTAA [XGTACX_site2337] | 9.22
6 | TTATAGGTGCTTCGTAGTACATAAAAATAATATATA [XGTACX_site6979] | 9.52
7 | AAGACTCTTTGTCCTTGTACATATATTTTTATGTTT [XGTACX_site3711] | 9.78
8 | TTTATATAATATGAATGTACTTATATATTTATAGAC [XGTACX_site3261] | 9.55
9 | CACACTTTTTAAATTAACGCATTTCAAAAAAAATAT [CACACA_negctrl_site84] | 9.42
10 | TTTCTTTTTTAGAGGTGTACACGTAGGCCTCTTGGA [XGTACX_site4760] | 9.33
11 | TATTTATACACGCACACACACTTATACATTTATATA [CACACA_site7543] | 10.8
12 | TTAGATATTAATATATGTACATATTAATATATTTAC [XGTACX_site7119] | 9.61
13 | TATAATTTTTACTGGGTGCACTCGATATTTTAAATA | 9.61
14 | TAAATGTAAAACGAAATGCACACTATGGAAAATATA [CACACA_site724] | 9.83
15 | TATAAAATAAAAAATATATATATGTATATATATATA [TGCATGCA_negctrl_site163] | 9.63
16 | ATTATTTTATATACATGTACATATTATATATAAAAG [XGTACX_site2735] | 9.39
17 | TATAAGTGCTCAACGGTGCATTTATAGAAGTTAAAC | 9.61
18 | ACATTTTTGGTTTTAGTGCAATATGAATTATTTTAT | 9.65
19 | TCTTCCATTTTTATTACACACATAAATATGAAATCG [CACACA_site3471] | 9.74
20 | CCTTTAAGCAAAAACACACACACATATATATATATA [CACACA_site348] | 10
21 | GGAATATTATTTCAATGTACATTTTGAGATTAGAAT [XGTACX_site8187] | 9.5
22 | ATTATTATTTTACGTAGTACATATAATAAATATTTA [XGTACX_site8934] | 9.5
23 | TTATTTCTAATTCGTTGTACAATATATAATATATAT [XGTACX_site5861] | 9.68

Row | Sequence | gcPBM binding intensity (ln)
24 | TATCCATATTTGTTCACACACACACGGATTTATATA [CACACA_site7649] | 10.1
25 | TTGATAGACACATGCACACATGCAATACTTTATTCA [CACACA_site3000] | 9.99
26 | TAGGTGTTAAAAAATACACACACAAAAAAAAAAAAA [CACACA_site7927] | 9.96
27 | ATTAATATGAATAAAACACACATATATAATTTGTAA [CACACA_site1929] | 9.85
28 | ATTTTTTTTTTTTTTTTTTATATGCTCTCCATGAGA [CACACA_negctrl_site1225] | 9.18
29 | AAAAAAAAAAAGAAATGTACATGAATATTTTAAATG [XGTACX_site4069] | 9.68
30 | TGCAGTCTGGAGAAGAGTACACAGTATCTGGTAACA [XGTACX_site2037] | 9.49
31 | TATATATTCATATGTTGTACATAAATACAAATAAGA [XGTACX_site5602] | 9.78
32 | AACAGAATAATACTAAATGAACGATTTCTCTTTATG [GTGCAC_negctrl_site376] | 9.6
33 | AAAGGTAAATGTAAATAAATAAATAATAAATATATA [GTGCAC_negctrl_site681] | 9.77
34 | TCTTTTTACACCTCTTACATAAAACAAAATAAGGGG [XGTACX_negctrl_site12] | 9.68
35 | TATACATGTTATGTACATCTAATCACACGTGCAATA [CACACA_negctrl_site1267] | 9.78
36 | TTGTAAATTTACATTTGTACATAAATATATTAATAT [XGTACX_site3969] | 9.59
37 | ATATATATAAAACACACACACACATGGTTTAAAACT [CACACA_site4219] | 10.4
38 | TGTATGTTTGGGTGCACACATAAATATTATATATAG [CACACA_site3397] | 9.82
39 | CATGCTACATCTTATTGTACTTATCTAATGTTAGTA [XGTACX_site1863] | 9.66
40 | AAAAAGGAGAAACACACACACACACCCATATATATA [CACACA_site905] | 10.7
41 | AGGCAATATTATATATATATATATATATATATATAT [CACACA_negctrl_site826] | 9.75
42 | GTATGATGCATAAGAGTGCATAAGGATATTTCTTCA | 9.66
43 | AATTTAAAAAATAACAGTACATAAAATATATACATA [XGTACX_site7917] | 9.61
44 | TATTGTTATTAAAAATGTACATATAAATTTCTTATT [XGTACX_site1409] | 9.47
45 | AAAAATAAAAGGTGTGCACACAAAAATATATATATA [CACACA_site8507] | 10.5
46 | TGGCATTAAAATTTAGTGCATATATCTTAGCATGGG | 9.47

Row | Sequence | gcPBM binding intensity (ln)
47 | TGTGTATATTATATGTGTACATATCAATGTTTATAT [XGTACX_site1885] | 9.86
48 | TAATATTAAATAAATAAAATATATAATATATATATA [XGTACX_negctrl_site49] | 9.43
49 | TAATATATAACGTGCACACACACATCTACGTATGAA [CACACA_site5080] | 10.3
50 | CAATGTTAACATATTACACACATATGTATTTATAAT [CACACA_site5512] | 9.86
51 | GCATATATTATATATTTATTTATTTTTTTTTTTTAA [GTGCAC_negctrl_site193] | 9.44
52 | AATAAAGGAAATAAATAATTTATTTTGTAAAATATG [CACACA_negctrl_site97] | 9.53
53 | ATATATATGAATACATGTACGTATTTGTCTATGTAT [XGTACX_site8306] | 9.81
54 | AAAATATTTATATTTACACACACATAATACATATAT [CACACA_site32] | 10.5
55 | GTGTACAGTTTTTGCACACATATAAATAAAAAAAAG [CACACA_site3599] | 9.9
56 | TAAATTACATGAAATTGTACATGAATATTAAATATA [XGTACX_site3909] | 9.34
57 | ATATATACAAAGGATTAACACACATATTATTATATA [CACACA_site8563] | 9.77
58 | TTCGTTATAATTGAATTTACAATATGCTTTATAATG [XGTACX_negctrl_site238] | 9.6
59 | ATGTTACTCAGACACACACACATAAAAAAACAAAAA [CACACA_site3249] | 10.4
60 | TGTGTTAATATATGAAGTACACAATACACACTAATT [XGTACX_site5469] | 9.84
61 | AAATAAAATTATAATACATGCATACATACATATATA [TGCATGCA_site69] | 9.67
62 | TCATATGTTAAATGATGTACATTTAATATAAATAAA [XGTACX_site900] | 9.3
63 | AAAAAAAACATCCTCACACATATATATATATATATA [CACACA_site5166] | 9.65
64 | TAATATCATTTATGGGGTACCTCCTATTCTTATTTA [XGTACX_site1839] | 9.64
65 | CGAACTGCACTTTTTAGTACTTAATAATTATTTTTT [XGTACX_site2446] | 9.86
66 | TATACATCATTTTTCAACAACAAAAAAAAAAAAAAT [CACACA_negctrl_site1185] | 9.44
67 | ATATATATAAATACAACACACATGTAATATATAAAT [CACACA_site5766] | 10.2
68 | ACGTAAAATAGGGACGCATGCACAAATATTTTTAAA [TGCATGCA_site336] | 9.72
69 | TAATAATTACAAAGAAGTACATAAAAAAAAATTTAT [XGTACX_site4684] | 9.55

Row | Sequence | gcPBM binding intensity (ln)
70 | CTATATATATATTTCAGTACATATTAAGAATATATA [XGTACX_site4860] | 9.41
71 | TTCTAATAAATGTGTTGTACACCTTTAGCAACTATT [XGTACX_site3235] | 9.73
72 | TATATAAATATATACACACATACATACATACATATA [CACACA_site3835] | 10
73 | TATATATATTTATGCACACAAAATATATTATATAAT [CACACA_site5955] | 9.67
74 | AGGAAAAAAGAAAAAACACACATAAATATTTATATA [CACACA_site7446] | 9.65
75 | TTATTTATTTATTGTTGTACACAAAATGATTCTTAA [XGTACX_site6480] | 9.48
76 | AAACAAAACAAAACATGTACACATTATATATATATA [XGTACX_site3374] | 9.86
77 | TAAATACTTCGTAAAACACACAAGTAGAAAAAAAAA [CACACA_site360] | 9.84
78 | ATTAATTATATATATACACACACATACACCCAAATA [CACACA_site9126] | 10.3
79 | AAAAATATAATATATGCACACATACATACATATATA [CACACA_site7915] | 9.78
80 | CATTAACAAATAAATGCACACATATATATAAATAAT [CACACA_site7892] | 9.86
81 | AATTTATTAGATAGATGTACATTTTAATAAAAGTAG [XGTACX_site6819] | 9.66
82 | TAAAAATTAAAACTGGGTACAAATTTATAGATAGCC [XGTACX_site8075] | 9.91
83 | TCCCCTTAATTTAAAACACACAAACAAATAAGTTAG [CACACA_site5973] | 9.66
84 | TTTACATTTATGTGCACACATTCCATTTGAAAGTAA [CACACA_site1953] | 9.7
85 | AATATTTTTTTTTAAACATGCATATTTGCATTACCC [TGCATGCA_site437] | 9.55
86 | TGTATATATTTTAATAGTACTCATATATATATATAT [XGTACX_site7216] | 9.73
87 | ATAACTTTCTATACATGTACACATATATGGTATTTT [XGTACX_site7535] | 9.94
88 | ATAAATTTTTTATGAACACACAAATACACCCACTCA [CACACA_site5465] | 10.7
89 | CTTATAAAAAAAATTGCACACATATTATACAGGACG [CACACA_site8133] | 9.92

— the supplement of paper PMC11417369
